# Measurements from patent publication US6528630B1 (priority 1997, dated 2003).
# Experiments:
# [1] = biological target: T1, human neuronal calcium channel α1D subunit (Homo sapiens, UniProt Q01668)
# T1 construct: The full-length α1D cDNA from pVDCCIII(A); expressed in transfected cells; host or cells: HEK 293 (transient)
# Source text: Expression vectors pVDCCIII(A), pHBCaCHα2A and pHBCaCHβ1aRBS(A) were used in two sets of transient transfections of HEK 293 cells (ATCC Accession No. CRL1573). In one transfection procedure, HEK 293 cells were transiently cotransfected with the α1 subunit cDNA expression plasmid, the α2 subunit cDNA expression plasmid, the β1 subunit cDNA expression plasmid and plasmid pCMVβgal (Clontech Laboratories, Palo Alto, Calif.). Plasmid pCMVβgal contains the lacZ gene (encoding E. coli β-galactosidase) fused to the cytomegalovirus (CMV) promoter and was included in this transfection as a marker gene for monitoring the efficiency of transfection. […] The transfectants were analyzed for β-galactosidase expression by direct staining of the product of a reaction involving β-galactosidase and the X-gal substrate [Jones, J. R. (1986) EMBO 5:3133-3142] and by measurement of β-galactosidase activity [Miller, J. H. (1972) Experiments in Molecular Genetics, pp.352-355, Cold Spring Harbor Press]. To evaluate subunit cDNA expression in these transfectants, the cells were analyzed for subunit transcript production (northern analysis), subunit protein production (immunoblot analysis of cell lysates) and functional calcium channel expression (electrophysiological analysis). […]
# [2] = biological target: human neuronal calcium channel α1D and α2 subunits (Homo sapiens, UniProt Q01668); experiment: Two-electrode voltage clamp of Xenopus oöcytes injected with α1D and α2 transcripts; conditions: very small Ba2+ currents (15-30 nA)
# [3] = system: HEK 293 cells transiently transfected with pCMVβgal only; experiment: Whole-cell patch clamp of negative control HEK 293 cells (pCMVβgal only)
# Method: Individual transiently transfected HEK 293 cells were assayed for the presence of voltage-dependent barium currents using the whole-cell variant of the patch clamp technique [Hamill et al. (1981). Pflugers Arch. 391:85-100]. HEK 293 cells transiently transfected with pCMVβgal only were assayed for barium currents as a negative control in these experiments. The cells were placed in a bathing solution that contained barium ions to serve as the current carrier. Choline chloride, instead of NaCl or KCl, was used as the major salt component of the bath solution to eliminate currents through sodium and potassium channels. The bathing solution contained 1 mM MgCl2 and was buffered at pH 7.3 with 10 mM HEPES (pH adjusted with sodium or tetraethylammonium hydroxide). […] Currents were measured through a 500 megohm headstage resistor with the Axopatch IC (Axon Instruments, Foster City, Calif.) amplifier, interfaced with a Labmaster (Scientific Solutions, Solon, Ohio.) data acquisition board in an IBM-compatible PC. […] Data were analyzed with pClamp or Quattro Professional (Borland International, Scotts Valley, Calif.) programs. […]
# Twenty-one negative control HEK 293 cells (transiently transfected with the lacZ gene expression vector pCMVβgal only) were analyzed by the whole-cell variant of the patch clamp method for recording currents.
# T1 sequence (Q01668 whole entry): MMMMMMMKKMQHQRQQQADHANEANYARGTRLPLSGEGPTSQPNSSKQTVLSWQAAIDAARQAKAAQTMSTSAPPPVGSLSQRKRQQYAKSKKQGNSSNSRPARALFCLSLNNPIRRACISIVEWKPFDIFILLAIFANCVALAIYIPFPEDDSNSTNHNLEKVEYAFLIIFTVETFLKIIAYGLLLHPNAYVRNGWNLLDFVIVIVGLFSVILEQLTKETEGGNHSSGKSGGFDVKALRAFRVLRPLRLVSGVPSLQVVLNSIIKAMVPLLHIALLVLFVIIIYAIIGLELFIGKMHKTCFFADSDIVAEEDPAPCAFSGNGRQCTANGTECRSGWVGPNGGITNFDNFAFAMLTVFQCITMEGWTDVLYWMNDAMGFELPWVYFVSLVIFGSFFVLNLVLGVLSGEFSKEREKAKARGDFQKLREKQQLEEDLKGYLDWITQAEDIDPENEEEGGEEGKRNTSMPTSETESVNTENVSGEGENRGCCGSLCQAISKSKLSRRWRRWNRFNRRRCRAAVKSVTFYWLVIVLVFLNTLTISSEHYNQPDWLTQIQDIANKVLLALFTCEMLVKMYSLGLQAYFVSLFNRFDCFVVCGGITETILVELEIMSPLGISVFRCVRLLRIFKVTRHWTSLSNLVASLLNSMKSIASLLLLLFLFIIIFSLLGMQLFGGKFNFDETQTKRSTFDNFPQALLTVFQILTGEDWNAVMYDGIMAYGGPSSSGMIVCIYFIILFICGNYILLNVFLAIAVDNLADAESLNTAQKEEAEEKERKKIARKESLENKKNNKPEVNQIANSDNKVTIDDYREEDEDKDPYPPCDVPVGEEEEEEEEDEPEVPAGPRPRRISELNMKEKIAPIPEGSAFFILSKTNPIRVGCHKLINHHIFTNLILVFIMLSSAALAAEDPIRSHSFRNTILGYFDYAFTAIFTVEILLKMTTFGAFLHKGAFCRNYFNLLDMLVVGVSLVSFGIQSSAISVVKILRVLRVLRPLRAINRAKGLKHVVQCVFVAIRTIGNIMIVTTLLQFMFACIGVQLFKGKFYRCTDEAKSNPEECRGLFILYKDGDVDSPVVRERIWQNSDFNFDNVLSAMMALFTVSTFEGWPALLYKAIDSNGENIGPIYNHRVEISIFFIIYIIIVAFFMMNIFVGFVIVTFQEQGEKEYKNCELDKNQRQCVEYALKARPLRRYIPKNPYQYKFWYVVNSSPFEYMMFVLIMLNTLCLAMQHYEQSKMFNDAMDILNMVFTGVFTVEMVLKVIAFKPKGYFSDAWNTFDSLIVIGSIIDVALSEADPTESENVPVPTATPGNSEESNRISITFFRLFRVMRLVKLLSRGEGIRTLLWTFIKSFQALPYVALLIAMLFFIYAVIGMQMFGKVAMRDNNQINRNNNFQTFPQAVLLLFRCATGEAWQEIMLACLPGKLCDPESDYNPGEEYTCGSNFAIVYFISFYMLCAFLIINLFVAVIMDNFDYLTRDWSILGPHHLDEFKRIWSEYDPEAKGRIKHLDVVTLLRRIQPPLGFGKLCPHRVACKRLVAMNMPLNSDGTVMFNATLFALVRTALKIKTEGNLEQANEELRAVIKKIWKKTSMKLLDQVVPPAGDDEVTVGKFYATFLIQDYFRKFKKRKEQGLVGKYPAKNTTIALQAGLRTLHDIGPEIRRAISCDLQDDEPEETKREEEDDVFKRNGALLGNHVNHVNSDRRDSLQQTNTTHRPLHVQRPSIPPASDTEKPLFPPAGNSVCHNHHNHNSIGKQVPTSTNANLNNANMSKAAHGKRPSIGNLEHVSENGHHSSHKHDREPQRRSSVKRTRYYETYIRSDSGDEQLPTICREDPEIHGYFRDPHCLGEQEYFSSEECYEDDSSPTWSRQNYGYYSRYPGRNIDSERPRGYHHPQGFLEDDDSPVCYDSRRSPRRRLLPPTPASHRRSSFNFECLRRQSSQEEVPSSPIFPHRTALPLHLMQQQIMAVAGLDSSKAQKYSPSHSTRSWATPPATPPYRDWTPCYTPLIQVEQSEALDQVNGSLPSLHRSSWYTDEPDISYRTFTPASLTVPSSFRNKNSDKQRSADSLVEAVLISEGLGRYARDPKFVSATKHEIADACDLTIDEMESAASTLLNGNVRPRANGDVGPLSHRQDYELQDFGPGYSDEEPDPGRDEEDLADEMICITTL
smiles,measurement,setting,value
COC(=O)C1=C(C)NC(C)=C([N+](=O)[O-])C1c1ccccc1C(F)(F)F (centres unmarked) [Bay K 8644],amplification of inward barium current,"[1]; 1 μM Bay K 8644, 30 pA current",2 fold
same,tail currents,[1]; in the presence of Bay K 8644,small tail currents were detected
same,response of barium currents to Bay K 8644,[2],little or no response
same,effect on discernable inward barium current,"[3]; 1 μM Bay K 8644, one cell",not affected
same,appearance of currents in cells that did not display Ba2+ currents,"[3]; Bay K 8644, four cells",did not result in the appearance of any currents
